Here are results for 22 molecules from paper PMC12136788.

First the molecules themselves.
B1: chr11:7467339:7467451:+|3pUTR|ENSG00000170743|unk|total|mutant (ssRNA)
RNA: GGGAGUUCUACAGUCCGACGAUCCCAAGAGAAUACCAAGACAAGCAGGCUGUUCCCUGGAAAAAAUCUAAUGCAAGGAGGGCCCGUUCACAGCAAAUUCACUGCCUCCUCCCAUGCACGUGGCCGAGAGUACCAGUAUCAACACAACAGAGGAUUGAGCAUCA
B2: chr4:99420532:99420793:-|CDS|ENSG00000196344|control|control|control (ssRNA)
RNA: GGGAGUUCUACAGUCCGACGAUCUGCAUCUAGGAUCAUUGGGAUUGACCUCAACAAAGACAAAUUUGAGAAGGCCAUGGCUGUAGGUGCCACUGAGUGUAUCAGUCCCAAGGACUCUACCAAACCCAUCAGUGAGGUGCUGUCCAACAGAGGAUUGAGCAUCA
B3: chr1:154207159:154207278:-|3pUTR|ENSG00000143612|msi1_unk|total|mutant (ssRNA)
RNA: GGGAGUUCUACAGUCCGACGAUCUUCCCCAACCCUUCCUUAUGAGCAUUUUCCGAACAUUGGCUAAGACUAUUUUCCCCCAGCCGCGCUUUUUUCUGGAUUUGCAUUCAGGUGUUAUUCUUAAUGUUUCUGUCAAAGCUUCUUCAACAGAGGAUUGAGCAUCA
B4: chrX:30854639:30854752:-|CDS|ENSG00000157625|unk|total|mutant (ssRNA)
RNA: GGGAGUUCUACAGUCCGACGAUCUUCAGCUCUCCACAGCAUCAAGUGCAACCUUCCCAGUUGGGCCACAUCUUUAUGCCACCCCGUCCUUCAACUACUCCACCCCAUCCAUAUCAACAAGGACCUCCCCGCUAUCAGAAACAGCAACAGAGGAUUGAGCAUCA
B5: ENSG00000139116:stop:overlap|stop_codon|ENSG00000139116|stop_codon|NA|stop_codon (ssRNA)
RNA: GGGAGUUCUACAGUCCGACGAUCAUGCUUUACUAGGCCAUGCUUUACAAGAUCUAGAUAGCGUACCAUUAGGUAAGUAUGUUUAGCUUUCUGUGUAUCCUACAGCUGCAUGAAUUACUAAUUGUUCAUGUACACUAAUUGUGGCAACAGAGGAUUGAGCAUCA
B6: chr1:193013303:193013404:-|3pUTR|ENSG00000116750|unk|total|mutant (ssRNA)
RNA: GGGAGUUCUACAGUCCGACGAUCAAACCACUCCCGCUAUUUGAAGAGGAAUGCAGAUUUAUAUUGGGAGUUUUGAAACUACACCGUUUCUUACAAAAUCAUUGGAAGGUUUGGAGGAGCGGUUUCAAGCUUAAGUCUCCAGAGCAACAGAGGAUUGAGCAUCA
B7: chr3:107805913:107806014:+|3pUTR|ENSG00000114439|msi1_unk|total|mutant (ssRNA)
RNA: GGGAGUUCUACAGUCCGACGAUCUACAUGGAGAUUUAAGUUUAAGAUGGUUUAUAUAACCGGUUAUACCUACAUUUAUAUUGCCGAAUAAAUAUUAAAAAGCCUGUUCCAGAGACUCCCAAGCAGCCUGGGCAGGCAGAUGUACAACAGAGGAUUGAGCAUCA
B8: chr5:55424853:55425205:-|three_prime_utr|ENSG00000067113|control|control|control (ssRNA)
RNA: GGGAGUUCUACAGUCCGACGAUCCAAGCCUUUAAAGACUUCUGCUGCUGCUAUGCCUCUUGGAUGCACACUUUGUGUGUACAUAGUUACCUUUAACUCAGUGGUUAUCUAAUAGCUCUAAACUCAUUAAAAAAACUCCAAGCCCAACAGAGGAUUGAGCAUCA
B9: chr15:49134392:49134529:-|CDS|ENSG00000166200|unk|total|mutant (ssRNA)
RNA: GGGAGUUCUACAGUCCGACGAUCAUAUUUGCUUUCCCCGACUGAUGAUGGAGAAGAUGAUCUGAAAAAAGGUACACAGUUAUCCGAAAUAUAUGCUUUGGAAAUUCAAAUGUACACAGCACAGAAAAAUAACAAAAAACUUAACAACAGAGGAUUGAGCAUCA
B10: chr11:130877263:130877364:-|3pUTR|ENSG00000120451|msi1|total|mutant (ssRNA)
RNA: GGGAGUUCUACAGUCCGACGAUCCAGUCCUUUAACAACACCAGCAUGAAGGCAAAGGUGUUUUGUCAGACUGCAACAUCUAUCCGAAAGGCAAGGCAACUGGGAAUUGCUGGAGAAGGAUAAAUCAGGAGGAAUUGCUGGCCGCAACAGAGGAUUGAGCAUCA
B11: chr1:150960872:150960973:+|CDS|ENSG00000143379|unk|total|mutant (ssRNA)
RNA: GGGAGUUCUACAGUCCGACGAUCGGACUCCCACCCCCCAGAUCUUGGACCCCCACAUAUUCCUGUUCCUCCCUCAAUCCCUGCCGGUGGCUGCAAUCCACCUUCCUCCGAAGAGACACCCAAGAACAAGGUGGCCUCAUGGUUCAACAGAGGAUUGAGCAUCA
B12: chrX:48578139:48578249:+|3pUTR|ENSG00000102317|msi1_unk|total|mutant (ssRNA)
RNA: GGGAGUUCUACAGUCCGACGAUCGUAUCAAGAACAUGAUUAUCCAGCGGUAUUUUCUAAUUCAGAUCAUCAAACUGAUUAUACCGAAGAGUUGGCUUUAAAAUGUUUGCAAAUGUCUUUUUUUUUUUAAUACUGGAAGAAAAACAACAGAGGAUUGAGCAUCA
B13: chr15:34751031:34752477:-|three_prime_utr|ENSG00000159248|control|control|control (ssRNA)
RNA: GGGAGUUCUACAGUCCGACGAUCAUGACUGCUCAGACGUGGCUGUAUCCACCCUCAUUUAUGUGACCCUCACCAUUAAGAUGUAGGAUAAGACUGGAUAAAAGAAGAUUUUGCACCAAUGGGAAAGGAGGAAAAGUGGACCCACAACAGAGGAUUGAGCAUCA
B14: chr8:140515610:140515764:+|3pUTR|ENSG00000104472|unk|total|mutant (ssRNA)
RNA: GGGAGUUCUACAGUCCGACGAUCUUUUGGAAUCAGUUCUUAUAAACAGCUCGAUUCAGUUUCCGCUAAAUUUACCGUUCCGGCCGUAUGUUACAUUUGAAUUUUUGUCUUAAGAAAAGUUGACUGUUCAGAUAUUUUUCUACUCAACAGAGGAUUGAGCAUCA
B15: chr2:32415436:32415554:+|CDS|ENSG00000115760|unk|FALSE|unique (ssRNA)
RNA: GGGAGUUCUACAGUCCGACGAUCUGGGACUUUGGUUCAGUGCUUGAGGCUGCCAAAGUUUGCAGAGGAGGAGAAUCUUUGUAUAGACUCAAUAACUCCUUGUGCUGACGGAAUUCAUUUGUUGGUAGGACUGCGGACAUGCCCCAACAGAGGAUUGAGCAUCA
B16: chr2:197486603:197486717:-|3pUTR|ENSG00000144381|unk|total|mutant (ssRNA)
RNA: GGGAGUUCUACAGUCCGACGAUCCCACCAGAUGAGAAGUUAAGCAGCCUUUCUGUGGAGAGUGAGAAUAAUUGUGUACAAAGCCGAGAAGUAUCCAAUUAUGUGACAACCUUUGUGUAAUAAAAAUUUGUUUAAAGUUAAUAACAACAGAGGAUUGAGCAUCA
B17: chr17:57106211:57106324:+|CDS|ENSG00000121057|unk|total|mutant (ssRNA)
RNA: GGGAGUUCUACAGUCCGACGAUCUCAUCCCAGGUGGUGGGGCCAGUGCAGGAGGAAGAGUAUGCCGCAGAGAAGUUGCCAAGCCGGUUCAUCGAGUCGGCUCACACAGAGCUGGCAAAGGACGAUGCGGCGCCAGCACCCCCACAACAGAGGAUUGAGCAUCA
B18: chr6:31137533:31137950:-|three_prime_utr|ENSG00000204538|control|control|control (ssRNA)
RNA: GGGAGUUCUACAGUCCGACGAUCGCAUCUCCAGGCACCCACGCCCUCUCCACCCUCUGAUUCCCCGUGAAUUCUUCCCAAUUUAGCCUGUCUCCUUAAACCUCUUCCUCAUUCCCUCGGUUUUAUUCUGAACCCGUAAGGUGGCAACAGAGGAUUGAGCAUCA
B19: chr9:134030564:134030586:-|3pUTR|ENSG00000169925|msi1_unk|FALSE|overlapping (ssRNA)
RNA: GGGAGUUCUACAGUCCGACGAUCCCUCUGACAGUCUUUUGGGAAAGAGUAACACCCACAUACAGAAUUUGUCACAUCCAGAGUAGCACUGUUCCUUAAUACUGGCAUAAUGCUUCCAGGAAGUUUUUCUUUUUUAUAUUUAAACAACAGAGGAUUGAGCAUCA
B20: chr14:100537146:100537968:-|three_prime_utr|ENSG00000183092|control|control|control (ssRNA)
RNA: GGGAGUUCUACAGUCCGACGAUCGCCCCGGCCAACAACGAGGAGUCUGUUCCUCCCCGCACCUCCUCUCCUCCCCAGCCCUGUAGGCCUGAGGGGAGGGUCCCCCACACCACGGUGUCCACCCGGCCCCGGCCCGUGGAACUCCAACAGAGGAUUGAGCAUCA
B21: chr6:52752853:52752995:-|CDS|ENSG00000244067|control|control|control (ssRNA)
RNA: GGGAGUUCUACAGUCCGACGAUCAUUGAUAUGUAUAUAGAAGGUAUAGCAGAUUUGGGUGAAAUGAUCCUUCUUCUGCCCUUUAGUCAACCUGAGGAACAAGAUGCCAAGCUUGCCUUGAUCCAAGAGAAAACAAAAAAUCGCCAACAGAGGAUUGAGCAUCA
B22: chr16:70532473:70532607:+|CDS|ENSG00000189091|unk|total|mutant (ssRNA)
RNA: GGGAGUUCUACAGUCCGACGAUCCAAUGAUCCAACAGGGGAAGCAGCAGCUAAUACCCAGCAGACACUUACUUUCUAUGAGCCCGACCUUGGUUUAAAUCAUGUGGUCCGAAAAUACAGUGAACCUUUGGAGGAACACGGCAACAACAGAGGAUUGAGCAUCA

The other results are listed elsewhere or left out.

This assay has as its target T1, UNK ZnF1-6 (called full-length) (human, UniProt Q9C0B0 30-357).
T1 sequence: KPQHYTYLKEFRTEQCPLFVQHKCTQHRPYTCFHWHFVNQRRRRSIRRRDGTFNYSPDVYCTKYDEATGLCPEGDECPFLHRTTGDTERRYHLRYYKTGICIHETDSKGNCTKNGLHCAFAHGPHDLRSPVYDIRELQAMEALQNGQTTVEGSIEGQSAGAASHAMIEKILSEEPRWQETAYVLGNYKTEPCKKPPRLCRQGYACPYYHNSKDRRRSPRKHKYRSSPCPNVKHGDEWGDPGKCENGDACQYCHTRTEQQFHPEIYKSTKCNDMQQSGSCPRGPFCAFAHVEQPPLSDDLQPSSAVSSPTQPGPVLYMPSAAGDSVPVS
Briefly: nsRBNS (natural sequence RNA bind-n-seq); RBNS binding buffer (assumed for nsRBNS): 25 mM Tris pH 7.5, 150 mM KCl, 3 mM MgCl2, 0.01% Triton X-100, 500 ug/ml BSA, 20 U/ml SUPERase-In, 4 C; UNK is unkempt and MSI1 is Musashi-1; names of the RNAs are library labels; protein concentration not given here; high values mean tight binding.
In the case of B1, the binding signal was determined as 0.705 enrichment R.
In turn, B2 had a binding signal of 0.543 enrichment R.
The molecule B3 had a binding signal of 0.479 enrichment R.
Consider B4, for which the binding signal was determined as 0.998 enrichment R.
In the case of B5 it was 0.692 enrichment R; in that of B6, 0.619 enrichment R; in that of B7, 0.499 enrichment R.
As for B8, the figure is 0.725 enrichment R; as for B9, 0.45 enrichment R; as for B10, 0.663 enrichment R.
Regarding B11, the binding signal stood at 0.752 enrichment R.
In the case of B12 it was 0.446 enrichment R.
In the case of B13, the binding signal came to 0.717 enrichment R.
Take B14: the binding signal was determined as 0.344 enrichment R.
As for B15, the figure is 0.624 enrichment R.
For the molecule B16, the binding signal was 0.897 enrichment R.
As for B17, the figure is 0.814 enrichment R.
Take B18: the binding signal stood at 1.63 enrichment R.
In the case of B19, the binding signal stood at 0.595 enrichment R.
B20 showed a binding signal of 0.879 enrichment R.
B21 registered a binding signal of 0.361 enrichment R.
B22 showed a binding signal of 0.484 enrichment R.
